# Results: PubChem BioAssay AID686978 (National Center for Advancing Translational Sciences (NCATS), 2013)
# The campaign covered roughly 420,000 compounds. About 64,000 (15%) were called active. The inconclusive results got no clear call from the source; some entries with a clear call stand among them for comparison. The call rests on the fitted dose curve; in most records, active means well fitted inhibition curve with a large enough effect; inconclusive means small, poorly fitted or top-dose-only effect; inactive means flat fitted curve, though single readings scatter. Potencies of inconclusive entries are left out as doubtful fits.
# Experiment: qHTS for Inhibitors of human tyrosyl-DNA phosphodiesterase 1 (TDP1): qHTS in cells in absence of CPT; further: nearly all actives have a fitted effect of over 55% in size
# Settings: DT40 Tdp1-/- hTDP1 cells, no CPT, ATP luminescence, 48 h; activity change, negative = growth inhibition: at 46.2 µM (top of the series) unless noted
# Method in brief: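 Stably hTDP1-transfected Tdp1-null chicken DT40 cells were treated with library compounds minus camptothecin and grown for at least 48 hr at 37 °C, after which cellular ATP was quantified by luminescence.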
# On the % scale 0 is the no-effect control and ±100 the full control effect; potency means the concentration at half of the fitted maximal effect; tags describe the fitted curve by direction and shape.
SMILES,Potency,"activity change, negative = growth inhibition"
CC(C)Oc1ccc(C(CCN)C2CCCCC2)cc1 (configuration not stated),active: 8.2 µM,
CNS(=O)(=O)c1ccc2c3c(cccc13)C(=O)N2C,inactive,
Cc1ccc(NC(=O)COC(=O)c2ccc3c(c2)OCO3)c(C)c1,inactive,
CCN1C(=O)[C@H]2[C@@H](c3ccc(-c4ccc(OC)cc4)c(OC)c3)N[C@@](CC(C)C)(C(=O)OC)[C@H]2C1=O,"inconclusive [inhibitor, single point]",
COc1ccc(CCNS(=O)(=O)CCNC(=O)c2ccc(OC)cc2)cc1,"inconclusive [inhibitor, single point]",
O=C(Nc1cccc(F)c1)Nc1nnc([C@@H]2O[C@H](CO)[C@@H](O)[C@H]2O)s1,inactive,
COC1(OC)N=C(N)C2(C#N)C(c3ccc4c(c3)OCO4)C12C#N (configuration not stated),"inconclusive [inhibitor, partial curve]",
COCCn1c(-c2ccc(OC)cc2)c(-c2ccc(OC)cc2)oc1=O,inactive,
Cc1cc(C)n(CC(=O)NNC(=O)c2ccc(NC(=O)CC#N)cc2)n1,inactive,
O=C1c2[nH]nc(-c3ccccc3O)c2C(c2cccc(Cl)c2)N1Cc1cccnc1 (configuration not stated),"inconclusive [inhibitor, single point]",
O=C(CN1CCC(c2nc3ccccc3s2)CC1)NCc1ccccc1,"inconclusive [inhibitor, single point]",
CC1CCN(CC(=O)Nc2ccc(N3CCCCCC3)cc2)CC1,"inconclusive [inhibitor, single point]",
CC(=O)N1CCCc2cc(S(=O)(=O)N(C)CC(=O)Nc3cccc(C)c3C)ccc21,"inconclusive [inhibitor, single point]",
Cc1ccc(C(C)NC(=O)c2cc(C)oc2C)cc1 (configuration not stated),,inconclusive: -30.9% [inhibitor]
CCCCCCC=C1CCC(CN2CCCC2)C1=O (configuration not stated),active: 4.11 µM,
Cc1ccc2c(c1)nnn2C1CCN(S(=O)(=O)c2cccc(S(=O)(=O)N(C)C)c2)CC1,active: 14.6 µM,
N#Cc1c(-c2cccs2)cc(-c2ccccn2)nc1N,active: 5.8 µM,
O=C(c1ccco1)N(CCC(c1ccccc1)c1ccco1)Cc1ccc(F)cc1 (configuration not stated),"inconclusive [inhibitor, single point]",
CCOC(=O)C1CCCN(c2c(NCCN(C)Cc3ccccc3)c(=O)c2=O)C1 (configuration not stated),inactive,

SMILES,Potency,"activity change, negative = growth inhibition"
O=C(Nc1ccccc1)Nc1cc(Cl)cc(Cl)c1,active: 11.6 µM,
COc1cc(-c2n[nH]c(=S)n2C(C)c2ccccc2)cc(OC)c1OC (configuration not stated),inactive,
COc1ccccc1Cn1nc(C(=O)O)c2ccccc2c1=O,inactive,
c1cncc(CNc2ncn[nH]2)c1,inactive,
Cc1cccc2c1N(CCOc1ccccc1Cl)C(=O)C2=O,active: 2.59 µM,
Cc1cc(=O)oc2cc(OC(C)C(=O)N3CCCc4ccccc43)ccc12 (configuration not stated),"inconclusive [inhibitor, single point]",
CCOC(=O)c1sc(NC(=O)CSc2n[nH]c(-c3ccccc3)n2)c(C#N)c1C,"inconclusive [inhibitor, single point]",
Cc1ccc(C(=O)NCC(c2ccco2)N2CCc3ccccc3C2)cc1C (configuration not stated),active: 20.6 µM,
COc1cccc(-c2cc(C(=O)N/N=C/c3ccco3)c3ccccc3n2)c1,active: 0.92 µM,
O=C(NCCN1CCN(c2cccc(Cl)c2)CC1)C1COc2ccccc2C1 (configuration not stated),"inconclusive [inhibitor, partial curve, poor fit]",
Oc1cccc2ccc(/C=C/c3c(F)cccc3Cl)nc12,"inconclusive [inhibitor, single point]",
CCc1c(C(=O)NCc2ccc3c(c2)OCO3)[nH]c(C)c1C(C)=O,inactive,
Cc1cccc(N2CCN(Cc3nc(-c4ccccc4Cl)oc3C)CC2)n1,"inconclusive [inhibitor, single point]",
CN1CCC(=O)N(CCSc2ccc(Br)cc2)CC1,"inconclusive [inhibitor, partial curve, poor fit]",
CCOC(=O)c1cc(-c2ccc(C)cc2)n(CCC(=O)Nc2ccc(C(C)C)cc2)c1C,active: 5.17 µM,
CCCS(=O)(=O)c1c(S(=O)(=O)CCC)c2ccccn2c1C(=O)OC,active: 16.4 µM,
CC(C)(C)OC(=O)N1CCCC(C(=O)Nc2cccc(C(=O)NCc3ccccc3)c2)C1 (configuration not stated),"inconclusive [inhibitor, single point]",
COc1cc2c(cc1OC)C(SC)=NC(C)(C)C2,"inconclusive [inhibitor, single point]",
